In the supplement of paper PMC3334620:
Whole data set: some 33,000 sequences, median “E-score (-0.5 to 0.5)” near -0.017, cut for the highest 2% near 0.3. The list shows a part of the results.

Molecular target: T1, Sut1 (UniProt P53032)
T1 sequence: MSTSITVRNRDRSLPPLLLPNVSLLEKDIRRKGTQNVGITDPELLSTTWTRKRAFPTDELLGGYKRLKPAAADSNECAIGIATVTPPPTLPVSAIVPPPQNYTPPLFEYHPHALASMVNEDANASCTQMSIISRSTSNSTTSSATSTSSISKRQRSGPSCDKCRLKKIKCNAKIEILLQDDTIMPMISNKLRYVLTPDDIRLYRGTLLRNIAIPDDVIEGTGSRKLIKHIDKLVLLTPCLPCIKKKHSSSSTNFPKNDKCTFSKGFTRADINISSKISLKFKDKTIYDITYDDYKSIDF
Assay: PBM E-score (8-mer binding enrichment) (E-score (-0.5 to 0.5)); higher = stronger / more preferred TF binding; most listed sequences are background and not binding sites
Conditions: protein concentration: 200 nM; construct: GST-full length
How it was run: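 Universal all-10-mer Agilent arrays, double-stranded by primer extension on fresh or once-stripped slides, were probed with about 100-200 nM GST-tagged yeast transcription factors made by PURExpress. Fluorescent anti-GST detected bound protein, and masliner normalised the scans. E-scores from the Universal PBM Analysis Suite were given to each ungapped eight-base word pooled with its reverse complement.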

Sequence	PBM E-score
GTGGTTAA	0.0775
AATGTAAA	0.252
ACTAGGGG	-0.237
TGCCTACA	-0.15
GAGCACGA	0.107
CGCGCTAG	0.0253
ACTAATCG	0.182
GCCATACA	-0.0899
GATGATCA	-0.0348
AAGTGTCG	0.0186
CGTCGGTC	0.148
TACTTCCA	0.0469
ATCCACAC	-0.0894
CCCCTTGA	-0.0171
TAGGTTCA	-0.00817
GGCCGTAA	0.00876
ATAGGAGA	-0.366
AGCTAGAT	-0.0194
AATGCGGA	0.297
AGACGATA	0.156
GGGCTGTA	-0.182
TACCGGTA	0.0972
ATGAGAGA	0.101
ATGTGACC	0.057
AACCAAGT	0.0833

Sequence	PBM E-score
CTGAGTCA	-0.147
CCATATGG	-0.208
AAGCAGGA	0.00333
TCTGCCAA	-0.159
GGCCTTAA	-0.0238
CGACTGGA	-0.033
GGTCCCAA	-0.219
CATACCGA	-0.128
CCCCCAGC	-0.261
AGTCTGCC	-0.188
AACCGAAA	0.143
AAGACTTA	-0.0452
AGACCTGC	-0.305
AATCATCT	-0.104
CCTGGTCA	-0.307
CACGCATG	-0.18
AGATCGTG	-0.0866
AAGGCCCA	-0.0781
TTCTGCAA	-0.0309
ATACGCAT	0.0153
ATATGCTC	0.13
ACCTATCA	0.0988
CTATACGA	0.158
CACGGCGG	-0.13
AAGATAAG	0.0391

Sequence	PBM E-score
ACCTAGTA	-0.132
ATGAGTTA	0.0913
CACCTACG	-0.139
AGCTGCAT	-0.153
CGCGGGTA	-0.205
AACGACTG	-0.0246
TTCCAAAA	0.0792
ATACTAGA	0.136
AGTAGGAT	0.0781
AAATTTCC	0.167
GAGGAAGA	0.141
CAGCAAGG	-0.198
ACAAATGT	0.21
GTTCCATA	-0.117
CAGTGGCA	-0.208
CAGAATTA	-0.0304
AGGGATGA	0.029
ATGGCCCC	-0.273
GCGATACA	-0.0831
CGAAGTAA	0.132
ACATCTGA	-0.106
ATATCAAT	0.11
CCGCGCTA	-0.00771
CTAGATAA	0.149
AATTGCAT	0.151

Sequence	PBM E-score
ATCCTCTG	-0.125
ATACGGCA	0.0144
ACGTGTAT	-0.0421
AACACTAG	0.026
GGTTTAGA	0.0158
AAGATCCG	0.00271
ACTGTGCC	-0.0699
CTAACGAC	-0.0288
GGACAACC	0.0501
CGAGGCCC	-0.0796
CCCTGAGA	-0.392
CCAACGTA	-0.207
ATCCATGC	-0.139
TACGCAGA	0.0179
TGAAACAA	0.264
AACCTCCG	0.121
TAGTATAA	0.251
GCGTCCCA	-0.205
AAAGCCCT	-0.215
CGTAAGAC	-0.071
ATCTGGGG	-0.267
CCAGGACC	-0.137
GTGTACCA	-0.241
GATGTGGC	-0.247
CTCGCGTA	-0.134

Sequence	PBM E-score
TATATCGA	0.174
GAGCGGAC	0.0675
ATTCACTA	0.178
CAACGTGG	-0.0679
ACCATTAC	0.152
CCAACCCC	-0.0129
TGCACCCA	-0.164
CATTGTCA	-0.0301
GACTTCTC	0.102
CGAAAGCA	0.094
AGGTAGAC	-0.164
ATAGGGTC	-0.0641
GTATGGGA	-0.288
GGATCTCA	-0.0111
AATGCGGC	-0.119
CGTGATAC	-0.196
CCTCCCTC	-0.134
GCAACTCC	0.299
ATCAGATG	-0.0902
GAACCCAA	-0.162
ATTTGACG	0.137
GGTTACAC	-0.132
GAAATTGC	-0.0449
CCCGAGAC	0.0687
AAACCACG	-0.0101

Sequence	PBM E-score
GGGGGAAC	-0.255
CATATCGC	-0.0692
ACCTGCAC	-0.0264
GTAGGTCA	-0.0992
CGGTGGTA	-0.00793
GAGGCAGC	-0.245
GCCAATCA	-0.262
GACATCCA	-0.123
GAGTTGGA	0.188
ACAGAGAC	0.00598
AGGACTGA	-0.109
AGTCATTA	-0.0493
CGCTAAGC	-0.0886
ACACTCGC	0.00625
GCGACTTA	-0.106
ACACGCTA	-0.062
CGATAAAG	0.0523
CTCCGTAC	0.331
AGTCATGA	0.131
ACCCAGCT	-0.205
ACGCCGGG	-0.0288
AGATCATG	-0.0252
AGCCAGAG	0.0568
AGGTCACC	-0.21
GACGTAGA	-0.31

Sequence	PBM E-score
CAATGTAG	0.0173
AATAATAC	0.202
AAGTGCAC	0.124
CCTGTCTC	-0.0672
GTGTACAC	-0.0363
TACAGGCA	0.085
AGGGCATA	-0.104
CGTGTTAC	-0.0234
GTGAGTAA	0.00333
GTCCTAAA	0.11
ACCGGGGG	-0.103
ACGTCGCC	-0.225
GTATAATA	0.249
ATTGATTA	0.223
ATTAAATC	0.191
ACCCTTTG	-0.151
AGTAGGGC	-0.198
CCACCAGG	-0.274
CGTTTTAC	0.0488
CTACGCCC	-0.276
CTATAAAC	0.268
AACGGGAT	-0.0812
